Results taken from the supplement of paper PMC9446081.
The campaign covered roughly 39,000 compounds. About 220 (0.56%) showed activity. The list shows a part of the results.

Each compound was assayed on Escherichia coli K-12 BW25113 (assay: relative growth (OD600 normalised to plate interquartile mean) (fraction); higher = less growth inhibition, active = 0.2 or less). Settings: 50 µM; LB; incubation time: overnight (16-24 h).
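Further: static incubation at 37 °C against the wild-type strain, values averaged over two biological replicates.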

SMILES	relative growth
O=C(O)c1cc2cc(Cl)ccc2[nH]1	inactive: 0.99
COc1ccc(S(=O)(=O)N(C)C[C@@H]2Oc3ccc(NS(=O)(=O)c4cn(C)cn4)cc3C(=O)N([C@H](C)CO)C[C@H]2C)cc1	inactive: 0.998
CCCNC(=O)C[C@H]1CC[C@H]2[C@@H](COc3ccc(NC(=O)Nc4ccc(C#N)cc4)cc3C(=O)N2C)O1	inactive: 0.961
C[C@@H]1CN([C@@H](C)CO)S(=O)(=O)c2ccc(C#Cc3ccncc3)cc2O[C@H]1CN(C)S(=O)(=O)c1ccc(F)cc1	inactive: 0.993
Cc1ccc(S(=O)(=O)N(C)C[C@H]2Oc3c(NS(=O)(=O)c4c(C)noc4C)cccc3C(=O)N([C@@H](C)CO)C[C@H]2C)cc1	inactive: 1.01
CO[C@@H]1CN(C)C(=O)c2ccc(NC(C)=O)cc2OC[C@@H](C)N(S(=O)(=O)c2cn(C)cn2)C[C@@H]1C	inactive: 0.958
C[C@H]1CN([C@@H](C)CO)C(=O)Cc2cc(NS(C)(=O)=O)ccc2O[C@@H]1CN(C)Cc1ccc(C(F)(F)F)cc1	inactive: 0.893
C[C@H]1CN([C@@H](C)CO)C(=O)c2cccc(NC(=O)c3ccc(-c4nccs4)cc3)c2O[C@H]1CN(C)Cc1ccc(Cl)c(Cl)c1	inactive: 1.02
O=C(CCCCCNC(=O)OCc1ccc(CO[C@@H]2C[C@H](c3ccc(Br)cc3)C=C(C(=O)N3CCCCCCC3)O2)cc1)NO	inactive: 0.983
CN1CCN(C(=O)C[C@H]2CC[C@@H]3[C@H](COC[C@H](O)CN3C(=O)C3CCOCC3)O2)CC1	inactive: 0.988
Cc1noc(C)c1S(=O)(=O)Nc1ccc2c(c1)CC(=O)N([C@H](C)CO)C[C@H](C)[C@H](CN(C)Cc1ccccc1)O2	inactive: 1.01
CCC(=O)N[C@H]1C=C[C@@H](CC(=O)OC)O[C@H]1CO	inactive: 1.01
C[C@@H]1CCCCO[C@H](CN(C)Cc2ccc(C(F)(F)F)cc2)[C@@H](C)CN([C@H](C)CO)C(=O)c2cc(NC(=O)c3ccncc3)ccc2O1	inactive: 0.962
C[C@H]1CN([C@@H](C)CO)C(=O)c2cc(Br)cnc2O[C@@H]1CN(C)S(=O)(=O)c1ccccc1	inactive: 1
CCOC(=O)c1cnc[nH]1	inactive: 0.976
C[C@H]1CCCCO[C@@H](CN(C)Cc2ccc3c(c2)OCO3)[C@@H](C)CN([C@@H](C)CO)C(=O)c2cc(NC(=O)Nc3ccc4c(c3)OCO4)ccc2O1	inactive: 0.942
C[C@H](N)CCCP(=O)(O)O	inactive: 1.05
C[C@H]1CN([C@@H](C)CO)C(=O)c2cc(C#Cc3cccc(F)c3)cnc2O[C@@H]1CN(C)CC1CCOCC1	inactive: 1.01
O=C(CN1CCOCC1)NCC[C@H]1CC[C@H](NC(=O)c2ccccc2F)[C@@H](CO)O1	inactive: 1.01
COCCNC(=O)C[C@H]1C[C@@H]2c3cc(NC(=O)CN(C)C)ccc3O[C@@H]2[C@@H](CO)O1	inactive: 1.04
C[C@H]1CN([C@@H](C)CO)C(=O)c2cc(NC(=O)Nc3ccc4c(c3)OCO4)ccc2O[C@H]1CN(C)S(C)(=O)=O	inactive: 1

SMILES	relative growth
Cc1ccc(S(=O)(=O)N(C)C[C@@H]2Oc3c(NS(=O)(=O)c4cccs4)cccc3C(=O)N([C@@H](C)CO)C[C@H]2C)cc1	inactive: 1.01
Cc1ccccc1OC(=O)c1sc2ccccc2c1Cl	inactive: 0.966
CNC[C@@H]1OCCCC[C@H](C)Oc2ccc(NC(=O)Nc3ccc(C(F)(F)F)cc3)cc2C(=O)N([C@@H](C)CO)C[C@H]1C	inactive: 0.983
CC(=O)O[C@H](C[C@H](O)C(C)(O)CCC=C(C)C)/C(C)=C/COC[C@@H](O)[C@@H](O)[C@@H](O)[C@@H](O)CO (stereo partly specified)	inactive: 0.968
C[C@@H]1CCCCO[C@@H](CN(C)C(=O)CCC(F)(F)F)[C@@H](C)CN([C@H](C)CO)C(=O)c2cc(NC(=O)NC3CCCCC3)ccc2O1	inactive: 1
C[C@@H]1CCCCO[C@H](CN(C)Cc2ccc(C(=O)O)cc2)[C@H](C)CN([C@H](C)CO)C(=O)c2cc(NC(=O)Nc3cccc4ccccc34)ccc2O1	inactive: 0.954
COc1cccc(S(=O)(=O)Nc2ccc3c(c2)[C@@H]2C[C@H](CC(=O)NCc4cccc(F)c4)O[C@@H](CO)[C@@H]2O3)c1	inactive: 1.03
Cc1cn([C@@H]2C[C@H](O)[C@@H](CO)O2)c(=O)[nH]c1=O	inactive: 0.988
O=c1ccc2cc3ccoc3cc2o1	inactive: 0.973
C[C@@H]1CCCCO[C@@H](CN(C)S(=O)(=O)c2cn(C)cn2)[C@H](C)CN([C@H](C)CO)C(=O)c2cc(NC(=O)Nc3ccc(C(F)(F)F)cc3)ccc2O1	inactive: 1.02
O=c1cc(-c2ccccc2)oc2ccc(O)cc12	inactive: 1
O=C(C[C@H]1CC[C@@H]2[C@H](COC[C@H](O)CN2C(=O)c2ccncc2)O1)NC1CCC1	inactive: 1.01
O=C(OC1Cc2c(O)cc(O)cc2OC1c1cc(O)c(O)c(O)c1-c1c(C2Oc3cc(O)cc(O)c3CC2OC(=O)c2cc(O)c(O)c(O)c2)cc(O)c(O)c1O)c1cc(O)c(O)c(O)c1 (stereo unspecified)	inactive: 1.05
C[C@@H]1CN([C@@H](C)CO)C(=O)c2cc(NC(=O)Cc3ccccc3)ccc2O[C@@H](C)CCCCO[C@H]1CN(C)C(=O)C1CCCCC1	inactive: 1.02
Cc1noc(C)c1NC(=O)N(C)C[C@@H]1Oc2ccc(NC(=O)CCN3CCOCC3)cc2C(=O)N([C@H](C)CO)C[C@H]1C	inactive: 0.987
Cc1ccc[nH]c1=O	inactive: 1
C[C@@H]1CN([C@@H](C)CO)C(=O)c2cc(NS(C)(=O)=O)ccc2O[C@@H](C)CCCCO[C@H]1CN(C)Cc1ccc(C(F)(F)F)cc1	inactive: 0.996
Cc1noc(C)c1S(=O)(=O)Nc1ccc2c(c1)CC(=O)N([C@H](C)CO)C[C@H](C)[C@@H](CN(C)Cc1ccccc1)O2	inactive: 0.998
CN(C)C(=O)C[C@H]1CC[C@@H]2[C@H](COC[C@H](O)CN2S(=O)(=O)c2ccccc2)O1	inactive: 0.997
COCC#Cc1ccc2c(c1)O[C@@H](CN(C)C(=O)c1ccccc1)[C@H](C)CN([C@H](C)CO)S2(=O)=O	inactive: 1.01
